Source: PubChem BioAssay AID651820 (National Center for Advancing Translational Sciences (NCATS), 2012)
Screen size: about 340,000 compounds; about 12,000 (3.5%) were called active. Inconclusive means that the source gave no clear call. Such entries were picked first, then a sample of the others. Calls follow the shape of the dose curve; as a rule, active = well fitted inhibition curve with a large enough effect; inconclusive = small, poorly fitted or top-dose-only effect, or another doubt; inactive = no such curve, though single readings can be large or run the other way. Potencies of inconclusive entries are left out as doubtful fits.

Experiment: qHTS Assay for Inhibitors of Hepatitis C Virus (HCV)
Conditions: Huh7.5.1 HCVcc-Cre (HCVcc is cell-culture hepatitis C virus) infection, luciferase reporter, 44 h; activity change, negative = inhibition: at 41.8 µM (top of the series) unless noted
In short: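 Cells (1,000/well) were plated 4 h before compound, then infected with HCVcc-Cre virus (~0.5 moi). After 44 h further culture, infection was read as luciferase luminescence following a 15 min substrate incubation at room temperature.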
% is scaled to controls: 0 for no effect and ±100 for the full control effect; potency is read from the fitted curve at half-maximal effect; tags tell the direction and shape of the fitted curve.

SMILES	activity change, negative = inhibition	Potency
O=C(CCN1C(=O)C2CC=C(Cl)CC2C1=O)NC1CCCCC1 (stereo unspecified)	inactive: -4.25%	
N#Cc1ccc(CN2CCN(C(=O)CNS(=O)(=O)c3ccc4c(c3)OCCCO4)CC2)cc1		inconclusive [inhibitor, single point]
Cc1cc(C)c(C#N)c(SCC(=O)Nc2nonc2N)n1	inactive: -7.78%	
Cc1ccc(N/C=C(\C#N)c2ccc(OCCCF)cc2)cc1		inconclusive [inhibitor, single point]
COc1ccc(N(C(=O)CNS(=O)(=O)c2ccccc2)C(C(=O)NCc2ccco2)C(C)C)cc1 (stereo unspecified)	inactive: 9.29%	
O=c1cc(Nc2ccc3c(c2)OCCO3)[nH]c(=O)n1Cc1ccc(F)cc1	inactive: -9.7%	
COc1ccc2c(c1)OC[C@H]1[C@H]2N2C(=O)CN(Cc3ccco3)C(=O)[C@@]2(C)[C@H]1c1ccccc1		inconclusive [inhibitor, partial curve]
Oc1csc(Cc2nc(-c3ccc(Br)cc3)cs2)n1		inconclusive [inhibitor, single point]
Cn1c(N)c(C(=O)COC(=O)/C=C/c2ccc(OC(F)F)cc2)c(=O)n(C)c1=O		inconclusive [inhibitor, single point]
COc1ccc(C(=O)N2[C@@H](C(C)C)COc3cc(Br)ccc3S2(=O)=O)cc1		inconclusive [inhibitor, partial curve]
Cc1ccc(-n2cc(CN3CCN(c4ccccn4)CC3)c(-c3ccc(F)cc3)n2)cc1		inconclusive [inhibitor, single point]
Cc1ccc(CN2CCN(/N=C\C(Br)=C\c3ccccc3)CC2)cc1	inconclusive: -35.5% [inhibitor]	
O=C(CSc1nc(-c2ccccc2)cc(C(F)(F)F)n1)N1CCOCC1		inconclusive [inhibitor, single point]
CCOC(=O)C1CCCN(c2ncnc3c2cnn3-c2ccc(Cl)cc2)C1 (stereo unspecified)		inconclusive [inhibitor, partial curve]
CSc1nc(C)c(Br)c(N2CC2)n1		inconclusive [inhibitor, single point]
O=C(CSc1ccc(-c2ccco2)nn1)Nc1ccccc1		inconclusive [inhibitor, single point]
Cc1cc(=O)oc2c3c(cc(OCC(=O)NCc4ccccn4)c12)OC(C)(C)CC3		inconclusive [inhibitor, partial curve]
OCCC1CN(Cc2cnc(-c3ccc(Cl)cc3)nc2)CCN1C1CCCCC1 (stereo unspecified)		active: 12.6 µM
O=P(NCc1ccccc1)(OCc1ccccc1)OCc1ccccc1	inactive: -25.2%	
CC(C)C(=O)N1CCN(c2nc(-c3ccccc3)c3c(c2C#N)CCCC3)CC1		active: 6.31 µM
COc1cc(/C=C/C(=O)Nc2ccncc2)cc(OC)c1OC		inconclusive [inhibitor, full curve, poor fit]
CSc1nc(N2CCCC2)c2c(c1C#N)CC(C)(C)OC2		inconclusive [inhibitor, partial curve]
CC(C)(C)NC(=O)CSc1nc2ccc(NC(=O)CSc3nnc(N)s3)cc2s1		active: 12.6 µM
Nc1nc(Nc2cccc(Cl)c2)nc(NCc2ccco2)c1[N+](=O)[O-]		inconclusive [inhibitor, single point]

SMILES	activity change, negative = inhibition	Potency
CCOc1ccc(NC(=O)CN(C)C(=O)c2cc(-c3ccncc3)nc3ccccc23)cc1OCC		inconclusive [inhibitor, single point]
CC(CCc1ccccc1)NC(=O)CCCn1ncn2c(cc3occc32)c1=O (stereo unspecified)	inactive: -0.784%	
COc1ccc(-c2noc(CCC(=O)NC3CCCCC3)n2)cc1OC		inconclusive [inhibitor, single point]
CCN(CC)CCC(=O)O[C@H]1CC[C@]2(C)C3CC[C@@]4(C)C(CC[C@]4(C)O)C3CC[C@H]2C1 (stereo partly specified)		inconclusive [inhibitor, partial curve]
COc1cccc(/C=N/NC(=O)c2cc3c(OC)c(OC)ccc3[nH]2)c1OC		inconclusive [inhibitor, partial curve]
C/C(CC(c1ccccc1)c1c(O)c2ccccc2oc1=O)=N\Nc1ccc([N+](=O)[O-])cc1[N+](=O)[O-] (stereo unspecified)		inconclusive [inhibitor, single point]
COc1ccc(-n2nc(C(=O)NCC(=O)NCCC3=CCCCC3)c3ccccc3c2=O)cc1OC		inconclusive [inhibitor, single point]
CCc1cccc(NC(=O)c2cccc3c2C(=O)N(CC2CCCO2)C3)c1 (stereo unspecified)		active: 11.2 µM
Cc1cc(C)cc(C(=O)NC(=S)Nc2ccc(-c3cc4ccccc4oc3=O)cc2)c1		inconclusive [inhibitor, partial curve, poor fit]
Cc1ccccc1-n1c(-c2ccoc2)nc2ccccc2c1=O		inconclusive [inhibitor, partial curve]
Cc1ccc(C)c(OCCC(=O)N2CCN(S(=O)(=O)c3cc(C)ccc3C)CC2)c1		inconclusive [inhibitor, full curve, poor fit]
O=C(NCc1ccccc1)c1ccc2c(=O)n(CC3CCCO3)c(=S)[nH]c2c1 (stereo unspecified)		inconclusive [inhibitor, partial curve]
Cc1nc(-c2cccc(S(=O)(=O)N3CCCCC3)c2)cs1	inactive: 0.407%	
COc1ccc(C(=O)NC(=S)Nc2ccc3oc(=O)ccc3c2)cc1		inconclusive [inhibitor, partial curve]
COc1ccccc1NS(=O)(=O)c1cccc(NC(=O)c2sc3ccccc3c2Cl)c1		inconclusive [inhibitor, partial curve, poor fit]
NC(=O)c1nn(CC(=O)Nc2cccc(S(=O)(=O)N3CCCC3)c2)c(=O)c2ccccc12		active: 11.2 µM
Cc1ccc(NC2CCCN(C(=O)C3CCCC3)C2)cc1C (stereo unspecified)	inactive: 10.1%	
COc1ccc(NC(=O)CSc2nc(N)c3cc4c(nc3n2)CC(C)(C)OC4)cc1	inactive: 8.42%	
COc1cccc(C2NC(=O)c3ccccc3O2)c1OCc1ccccc1F (stereo unspecified)		inconclusive [inhibitor, single point]
O=C(NCC(c1cccnc1)N1CCN(c2ccc(F)cc2)CC1)c1ccc2c(c1)OCO2 (stereo unspecified)		inconclusive [inhibitor, single point]
COc1cccc(/C=N/Nc2c(Cl)cncc2Cl)c1O		inconclusive [inhibitor, single point]
CCC(C)N(CCNC(=O)CC1Oc2ccccc2NC1=O)C1CCCCC1 (stereo unspecified)	inactive: 11.4%	
O=C1C=C2C=C[C@@H]3CC2(O1)[C@H]1CCCCN31		inconclusive [inhibitor, single point]
CN1CCN(CCC(=O)N2c3ccccc3Sc3ccc(Cl)cc32)CC1		inconclusive [inhibitor, single point]

SMILES	activity change, negative = inhibition	Potency
Cc1cccc(OCC(=O)O/N=C(\N)c2ccccn2)c1	inactive: 0.609%	
CCOC(=O)c1c(OCC)[nH]c2c1cc(O)c1ccccc12		inconclusive [inhibitor, partial curve]
Cc1nc2ccccn2c1-c1csc(Nc2cccc(C(=O)O)c2)n1	inactive: 13%	
COC(=O)c1ccc(COc2ccc3c(c2)CCC3)o1	inactive: 1.28%	
CC(Nc1ncnc2ccccc12)c1ccccc1 (stereo unspecified)		active: 4.47 µM
Cc1ccc(NC(=O)c2ncn(CC(=O)NCC(C)c3ccccc3)n2)cc1C (stereo unspecified)	inactive: 17%	
CCCCn1nc2cc(C(=O)NCC34CC5CC(CC(C5)C3)C4)ccc2c1OC	inactive: -29.8%	
COc1ccc(C(=O)COC(=O)c2ccccc2O)c(OC)c1		inconclusive [inhibitor, single point]
COc1cccc(N2CCN(Cc3ccco3)CC2)c1	inactive: -16.9%	
CCOc1ccc(C(=O)Nc2ccccc2N2CCCC2)cc1		inconclusive [inhibitor, single point]
CCc1nn(CCCC(=O)Nc2ccc(C)cc2C)c(=O)c2cc3occc3n12		inconclusive [inhibitor, full curve]
c1ccc2c(N3CCNCC3)cccc2c1		inconclusive [inhibitor, single point]
CCCCCc1cc(=O)oc2c(C(CCN3CCCCC3)c3cc(OC)c(OC)c(OC)c3)c(OC)cc(OC)c12 (stereo unspecified)		inconclusive [inhibitor, single point]
CCn1c(=O)c2cc(C(=O)N(C)CC(OC)OC)sc2c2ccccc21		active: 11.2 µM
CC1CC(C)CN(S(=O)(=O)c2ccc(C(=O)Nc3nnc(-c4cccs4)o3)cc2)C1 (stereo unspecified)		inconclusive [inhibitor, single point]
Cn1c(SCC(=O)N/N=C/c2cc([N+](=O)[O-])ccc2O)nnc1-c1ccccc1	inactive: 16.2%	
COC(=O)c1ccc(OCC(O)CN2C(=O)c3ccccc3C2=O)cc1 (stereo unspecified)	inactive: 1.01%	
O=C(CCCCCCCC(=O)N1CCCC1)N1CCCC1	inactive: -1.94%	
CCCCCn1c(Sc2nc3ccccc3s2)nc2c1c(=O)[nH]c(=O)n2C		active: 8.91 µM
Cc1ccc(NC(=O)c2cccc(NC(=O)/C=C/c3ccco3)c2)cc1C		inconclusive [inhibitor, partial curve]
Cc1ccccc1NCc1ccc([N+](=O)[O-])s1	inactive: -17%	
Cc1c(N)cc(S(=O)(=O)O)cc1NC(=O)c1cccc([N+](=O)[O-])c1	inactive: 7.06%	
CC/C(=N\NC(=O)c1ccccc1Cl)c1ccc(Br)s1		inconclusive [inhibitor, single point]
